Source: patent US9511047B2, “Delphinidin for combating melanoma cells” (priority 2012, dated 2016)

Test system: human fibroblasts
Assay: Cell vitality, ATP luminescence assay, fibroblasts (Example 12)
Details: 0.1-100 μM (0.1; 3.2; 100 μM); 4 h, 24 h, 48 h and 96 h (FIG. 19)

Oc1cc(O)c2cc(O)c(-c3cc(O)c(O)c(O)c3)[o+]c2c1.[Cl-] [delphinidin Cl, delphinidin chloride]
Cytotoxic effects on human fibroblasts (vitality): no significant cytotoxic effects
